Paper PMC4336329 (PLoS ONE, 2015)
The whole screen tested about 310,000 compounds, of which about 2,200 (0.71%) showed an effect of 50% or more. Effects have a minus sign here. The list shows a part of the results.

These molecules were tested against human ether-à-go-go-related gene (hERG) potassium channel (human, UniProt Q12809) (assay: primary screen, population patch clamp on CHO cells stably expressing hERG).
human ether-à-go-go-related gene (hERG) potassium channel, sequence (Q12809 whole entry, looked up): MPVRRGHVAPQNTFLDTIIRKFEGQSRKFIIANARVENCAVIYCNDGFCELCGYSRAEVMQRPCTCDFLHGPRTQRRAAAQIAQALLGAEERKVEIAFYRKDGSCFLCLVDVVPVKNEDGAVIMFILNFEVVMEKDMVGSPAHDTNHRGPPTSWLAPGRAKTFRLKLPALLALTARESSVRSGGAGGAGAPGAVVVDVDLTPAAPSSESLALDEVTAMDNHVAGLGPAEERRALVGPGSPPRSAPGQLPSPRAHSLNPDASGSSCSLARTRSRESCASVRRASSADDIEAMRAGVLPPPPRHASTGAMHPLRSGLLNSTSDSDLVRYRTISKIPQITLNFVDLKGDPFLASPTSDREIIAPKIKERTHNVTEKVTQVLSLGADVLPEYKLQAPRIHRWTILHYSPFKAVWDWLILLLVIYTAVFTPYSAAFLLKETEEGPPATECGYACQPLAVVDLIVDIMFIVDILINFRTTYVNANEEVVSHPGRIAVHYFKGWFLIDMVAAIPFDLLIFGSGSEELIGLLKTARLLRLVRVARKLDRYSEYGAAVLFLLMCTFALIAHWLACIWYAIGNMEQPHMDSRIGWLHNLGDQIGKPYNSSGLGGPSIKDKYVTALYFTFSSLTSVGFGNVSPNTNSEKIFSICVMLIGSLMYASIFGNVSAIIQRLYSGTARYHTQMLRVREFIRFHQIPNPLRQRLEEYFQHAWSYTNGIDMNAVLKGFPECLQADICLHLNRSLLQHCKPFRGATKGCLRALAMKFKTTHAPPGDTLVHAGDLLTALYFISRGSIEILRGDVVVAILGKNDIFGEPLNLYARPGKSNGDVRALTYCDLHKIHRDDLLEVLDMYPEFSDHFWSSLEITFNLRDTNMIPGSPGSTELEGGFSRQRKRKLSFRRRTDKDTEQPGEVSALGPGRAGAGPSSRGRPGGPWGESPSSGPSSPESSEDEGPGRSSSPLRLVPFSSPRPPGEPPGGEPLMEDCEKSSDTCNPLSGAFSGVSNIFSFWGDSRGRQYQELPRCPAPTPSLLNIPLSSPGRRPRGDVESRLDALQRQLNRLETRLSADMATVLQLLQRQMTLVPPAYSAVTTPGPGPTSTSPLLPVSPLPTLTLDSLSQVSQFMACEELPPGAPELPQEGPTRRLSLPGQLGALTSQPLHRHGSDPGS

SMILES | hERG current change (%, negative = inhibition) at 1uM
O=C(CC1C(=O)NCCN1Cc1cccc(F)c1)NC1CCCCCC1 (stereo not shown) | 14%
O=C(Nc1ccccc1)C1CCCN(S(=O)(=O)c2ccc(-n3cnnn3)cc2)C1 (stereo not shown) | -8.45%
CCOC(=O)c1c(C)n(C)c2cc(CN(C)C)c(O)c(S(=O)(=O)c3ccccc3)c12.Cl | 2.33%
O=C(OCC1OC2OC3(CCCCC3)OC2C2OC3(CCCCC3)OC12)c1ccccc1 (stereo not shown) | 11.5%
Cc1nc(N2CCOCC2)nc2c1CCCC2 | 0.169%
C=CCNC(=O)COC(=O)/C=C/c1cccs1 | 14.7%
O=C(c1cccs1)N(c1ccc(Br)cc1)C1C=CS(=O)(=O)C1 (stereo not shown) | -5.97%
CCCNCC1C(Oc2ccc(Cl)cc2Cl)C(=O)N1c1cccc(C)c1C.Cl (stereo not shown) | 8.41%
CN(C)c1nc(N)nc(CSc2nnnn2-c2ccc(C(=O)O)cc2)n1 | -0.858%
O=C(NCCN1CCCC(O)C1)c1cc(COc2c(F)cccc2F)on1 (stereo not shown) | 10.4%
CCOC(=O)C1=C(C)N(CCCC(=O)O)C(=O)NC1c1ccccc1 (stereo not shown) | 5.24%
Cc1cc(C)c(S(=O)(=O)/N=C2\C=CC(=O)C(Cl)=C2)c(C)c1 | 10.9%
CCOc1c(Cl)cnn(-c2ccc(C)cc2)c1=O | 8.64%
CN(C(=O)CSc1nnc(-c2ccccc2)c(-c2ccccc2)n1)C1CCS(=O)(=O)C1 (stereo not shown) | -2.13%
O=C(CSc1nnc(NC(=O)c2ccc(F)cc2)s1)NC1CC1 | 14.5%
Cc1nc2cc(-c3ccccc3)nn2c(C)c1CCC(=O)NCc1ccco1 | -2.36%
S=C(NCc1ccco1)NCc1ccccc1Cl | 16.2%
CC1(C)CC(=O)c2cn3c(nc2C1)nc1ccccc13 | -31.2%
O=C(O)/C=C\c1cccc(-n2cnnn2)c1 | 7.75%
Cc1cc(C)n(-c2ccc(NC(=O)C3CCN(Cc4ccccn4)CC3)cc2)n1 | 13%
NC(=S)N/N=C/c1coc2ccc(Cl)cc2c1=O | 10.1%
Cc1ccc(OCc2cc(C(=O)NC3CCOC3)no2)cc1C (stereo not shown) | 10%
O=C(COc1ccc(S(=O)(=O)N2CCCCC2)cc1)N1CCCC1 | 8.74%

SMILES | hERG current change (%, negative = inhibition) at 1uM
COc1ccc(C(=O)Nc2ccc3oc(Cc4ccc(Cl)cc4)nc3c2)cc1OC | 11.8%
COCOc1ccc(/C=C/C(=O)c2c(OCOC)cc(OCOC)c(CC=C(C)C)c2O)cc1OCOC | 7.36%
CN(C)c1cccc(C(=O)NCCCn2ccc3ccccc32)c1 | 17.7%
CC(C)N1C(=O)CCC1C(=O)N1CCCc2ccccc21 (stereo not shown) | -2.46%
CCc1ccccc1S(=O)(=O)Cc1ccc(C(=O)NC(C)C)o1 | 5.53%
CN(C(=O)COC(=O)c1cncc(Br)c1)C1CCS(=O)(=O)C1 (stereo not shown) | 4.49%
Cc1ccc(C(=O)Nc2ccccc2OC(F)F)cc1 | 4.15%
COc1ccc(CCNC(=O)c2cc(C3CC3)nc3c2cnn3C(C)C)cc1 | 5%
O=c1[nH]c(=O)n(-c2ccc(Cl)cc2)c(O)c1C=Nc1ccc(S(=O)(=O)Nc2nccs2)cc1 | 13.7%
O=C(NCc1ccccc1)NC1CCCCC1 | 12.5%
COc1ccc(C2Nc3ccccc3C(=O)N2NC(C)=O)c(OC)c1 (stereo not shown) | 15.4%
O=C(CNc1ccccc1)N/N=C/c1c(O)ccc2ccccc12 | 19.1%
Cc1ccc(SCCNC(=O)C(CO)(CO)CO)cc1 | 2.8%
CC(C)n1nnnc1SCC(=O)c1c(N)n(C2CC2)c(=O)[nH]c1=O | 12.3%
CC1CCc2[nH]c3ccc(C(=O)O)cc3c2C1 (stereo not shown) | 18.5%
CCN(CC)S(=O)(=O)c1ccc(Cl)c(C(=O)OC)c1 | -4.62%
Cc1cc(C)[n+](-c2ccc(Oc3ccccc3)c(S(=O)(=O)[O-])c2)[nH]1 | 10.5%
O=S1(=O)CCOC[C@H](CC2CCCCC2)N1Cc1ccccc1Br | 9.71%
CSc1ccc(C(=O)C2CCCN(C(=O)c3ccc(C)nc3)C2)cc1 (stereo not shown) | 8.09%
C1=CCC(CN2CCNCC2)CC1.O=C(O)C(F)(F)F (stereo not shown) | 12.6%
Cc1ccc(NC(=O)CSCc2n[nH]c(=O)[nH]2)c(Br)c1 | 12.4%
COCc1cc(C)nc(SCC(=O)Nc2ccc3c(c2)OCCO3)c1C#N | 12.3%
CNC(=O)/C(C#N)=C/c1c(N2CCCCCC2)nc2ccccn2c1=O | 16.2%

SMILES | hERG current change (%, negative = inhibition) at 1uM
Cc1nc2oc3ccccc3c(=O)c2c(=O)n1Cc1ccccc1 | 5.34%
CCc1nc(SCC(=O)Nc2ccc(Br)cn2)n[nH]1 | 13%
CCc1c(C(=O)NNC(=O)Nc2ccc3c(c2)OCO3)csc1C | 0.0107%
CCOc1c2ccc(C(=O)NCCCCc3ccccc3)cc2nn1CC | 6.47%
N#Cc1ccccc1NC(=O)c1cc(=O)c2ccccc2o1 | 7.47%
C[N+]1(C)CC2=Cc3ccccc3CC2C1.[I-] (stereo not shown) | 14.3%
CC(C)(C)C(=O)Nc1nnc(COc2ccc(Cl)cc2)s1 | -10.4%
O=C(CS(=O)(=O)c1c[nH]c2ccccc12)NC1CCCCC1 | 13.7%
CCN(CC)C1CC(=O)N(c2ccc(Br)cc2)C1=O (stereo not shown) | 15.4%
CCC(C)NC(=O)C1c2ccccc2C(=O)N(c2ccc(OC)cc2)C1c1ccc(OC)cc1 (stereo not shown) | 10.6%
Cc1ccc(-c2ccc(/C=N/n3cnnc3)o2)cc1 | 13.8%
CCOc1ccccc1NC(=O)c1ccc(F)c(S(=O)(=O)N2CCC3(CC2)OCCO3)c1 | -7.51%
CCC(=O)Nc1ccc(NCc2ccc(-c3ccccc3)cc2)cc1 | 13.5%
COc1ccc(CCNc2nc(-c3ccco3)cc(C(F)(F)F)n2)cc1OC | 11.8%
CC(=O)Nc1n[nH]c(-c2ccc(C)cc2)c1C | -6.17%
CCCCn1c(CN(C)Cc2ccccc2)nc2c1c(=O)n(C)c(=O)n2C | -11.2%
COc1ccccc1C(C)NC(=O)Cc1ccc(S(=O)(=O)N2CCOCC2)s1 (stereo not shown) | 10.2%
Cc1ccc(N2CC(C(=O)Nc3ccc(S(=O)(=O)Nc4nccs4)cc3)CC2=O)cc1C (stereo not shown) | 11.5%
Cc1ccc(SC[C@H](c2ccccc2)N2CCN(CCc3ccccc3)CCC2=O)cc1 | -10.2%
O=C(NCN1CCN(c2ccccn2)CC1)c1cnccn1 | 3.35%
Cc1sc2ncnc(Sc3ccccc3C(=O)Nc3ccc(Br)cc3)c2c1C | 5.01%
CC(=O)N1CCc2cc(S(=O)(=O)CCC(=O)Nc3cccc(F)c3)ccc21 | 18.1%
CCSc1nc2sc3c(c2c(=O)[nH]1)CC(C)(CC)OC3 (stereo not shown) | 18.7%

SMILES | hERG current change (%, negative = inhibition) at 1uM
NC(=O)NOCc1ccccc1 | 5.95%
CCn1c(SCC(=O)N2CCOCC2)nc(O)cc1=O | 18.1%
CC(=O)Nc1ccc(C(=O)Nc2ccc(S(=O)(=O)N3CCCC3)cc2)cc1 | 13.1%
CCOc1ccc(NS(=O)(=O)c2ccc(-c3ccc(=O)[nH]n3)o2)cc1 | 10.9%
CCOC(=O)c1ccc(NC(=O)C2C3C=CC(C3)C2C(=O)O)cc1 (stereo not shown) | 11.7%
COc1cc(/C=C/c2cccc[n+]2C)ccc1OCC(=O)Nc1ccccc1C.[I-] | 12.5%
C=CCn1c(SCC(=O)NC2CCS(=O)(=O)C2)nnc1-c1ccncc1 (stereo not shown) | 11.8%
O=C(CN1CCN(S(=O)(=O)N2CCCCCC2)CC1)Nc1ccc(Br)cc1 | -3.27%
COc1cc(NC(=O)C2CCC(CNc3c(N4CCC(C)CC4)c(=O)c3=O)CC2)cc(OC)c1 (stereo not shown) | 19.1%
COc1cc2c(-c3ccccc3)c(C)oc2cc1/C=N/NC(N)=S | 12.6%
CCc1nnc(NS(=O)(=O)c2ccc(N=Cc3c(O)n(-c4ccc(Cl)cc4)c(=O)[nH]c3=O)cc2)s1 | 1.63%
O=C(c1ccc2c(c1)OCO2)N1CCCN(C(=O)c2ccc3c(c2)OCO3)CC1 | 12.7%
Nc1c(C(=O)Nc2ccccc2)c2nc3ccccc3nc2n1CCCN1CCOCC1 | 11.9%
CCCCCC1CC(CC(=O)NC(=S)Nc2ccc([N+](=O)[O-])cc2)C(=O)O1 (stereo not shown) | 3.85%
COc1ccc(CNC(=O)C2CCCN(S(=O)(=O)c3cnc[nH]3)C2)cc1 (stereo not shown) | 13.6%
CCCc1cnc(N2CCN(S(C)(=O)=O)CC2)nc1 | 9.78%
COc1ccc(-n2c(COc3ccc(C)cc3)n[nH]c2=S)cc1 | 10.5%
C=CCOC(=O)C1=C(C)NC(=O)NC1c1cc2c(cc1Br)OCO2 (stereo not shown) | 3.81%
COC(=O)CC1(c2cccc3ccccc23)C(=O)c2ccccc2C1=O | 13.9%
O=C(Nc1ccc2c(c1)OCCO2)C1CCCN1C(=O)Nc1ccccc1 (stereo not shown) | 15.5%
Cc1ccccc1-c1nc(CS(=O)(=O)CC(=O)NCCCN2CCCC2)c(C)o1 | 3.82%
COc1ccc2c(C)cc(SCC(=O)Nc3c(C)n(C)n(-c4ccccc4)c3=O)nc2c1 | -13.4%
